± gives the standard deviation of the averaged measurements. The list shows a part of the results.
test system: PfAP2-EXP AP2 domain (GST-tagged); assay: gcPBM binding intensity (ln(normalized median fluorescence intensity)); higher = stronger DNA binding
Outline: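 For binding intensity, the highest Masliner-normalised natural-log median intensity across replicate spots of either probe orientation was taken. Protein bound to the array was stained with Alexa488 anti-GST antibody and scanned at 488 nm. The protein, GST-tagged P. falciparum DNA-binding domains from E. coli at about 25 μg on average, had been applied for 1 h to an Agilent 4 × 180k array of primer-extended double-stranded 36-bp intergenic genomic probes and negative controls.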

Row | Sequence | gcPBM binding intensity (ln)
1 | TTGGGTCAAACATAAACACACACAAAAAGAAAAAAT [CACACA_site8328] | 8.85 ± 0.55
2 | TCATAGTATGGACACACACACACACCCATATATATA [CACACA_site5033] | 8.78 ± 0.3
3 | TTTCCATATTTTTAAAGTACATATTTCCGTTTCCAC [XGTACX_site7832] | 8.64 ± 0.42
4 | ACATATAATATAAAGTGTACAAGAAAATAAAAATAA [XGTACX_site1273] | 8.77 ± 0.38
5 | TAATAATAAACAACCACACACAAAAAAACAAAAAAA [CACACA_site3269] | 8.69 ± 0.74
6 | GTAGCACATATATATTGTACATAATATATACATTAT [XGTACX_site6354] | 8.57 ± 0.16
7 | ATTTAATTATGTAAGTGTACTTTGGAATATAATATT [XGTACX_site3186] | 8.44 ± 0.41
8 | GTGTGGTGCTCGAGGAGTACAAACAATATGTAATTT [XGTACX_site4160] | 8.82 ± 0.42
9 | TAAACAGACATATAAACACACATATAAACAGACATA [CACACA_site7214] | 8.69 ± 0.56
10 | TTTATTTTATAATTCACACATATATACCTATTTTAT [CACACA_site5709] | 8.48 ± 0.36
11 | AATATAAGTAATTATACACACTTAATATTTATATAC [CACACA_site7334] | 8.29 ± 0.48
12 | TTTTCTTCCTATTATTGTACATATAGTATTCTTTCA [XGTACX_site4428] | 9.2 ± 0.61
13 | AATGTAGGTTTATTTACACACAAATATAGATATATA [CACACA_site6825] | 8.35 ± 0.36
14 | GTGTATTTATGTTATACACACAAAAATATTTTGTAT [CACACA_site4305] | 8.71 ± 0.23
15 | ATGTTGCTCATATGAGTGCACGTTTCATTTCAGTTT [GTGCAC_site9865] | 8.92 ± 0.26
16 | ATATTTAAAAAAGAGTGTACTCATCTCTTTTAAAAA [XGTACX_site1160] | 8 ± 0.26
17 | AATTTATATAATTTTGTGCACAATATTCATGTATAT | 8.99 ± 0.22
18 | CTATTTCGTATATATAGTACATATTATAACATACTA [XGTACX_site978] | 8.71 ± 0.27
19 | ACAAAATAAAAACACACACACAAACACAAAAAAATA [CACACA_site3390] | 8.71 ± 0.57

Row | Sequence | gcPBM binding intensity (ln)
20 | TATATATACAGACACATACACACAAATAAAAAAACA [CACACA_site3413] | 8.89 ± 0.56
21 | AGAAGGTAAAAACACACACACACATACAAAAAAAAA [CACACA_site3767] | 8.76 ± 0.56
22 | AGCTCTTGTCATTTTGCACACACACCGGTATAGGTT [CACACA_site5654] | 9.12 ± 0.4
23 | CCTCCATTAGATACTTGTACATAAAAGTTTTGATTG [XGTACX_site7428] | 8.57 ± 0.59
24 | AGACTTTGTACAAACACACACATGAACACAATATTA [CACACA_site1360] | 8.82 ± 0.5
25 | AATCATAAAATCATATGTACACATTTTTCCTATGAT [XGTACX_site8799] | 8.78 ± 0.41
26 | AAAAAAAAAAAATAATAAATAAATAAAAATAAATGA [CACACA_negctrl_site1623] | 8.32 ± 0.65
27 | ATTTTATTAATTTGGTGTACTTAATTTATATTTTTC [XGTACX_site4947] | 8.6 ± 0.34
28 | TTATAATAATTTTATGCACACAGAAAAATACAAGGT [CACACA_site9169] | 9.04 ± 0.21
29 | ATAATATATATATTAACACACATCCTTTTATGTATA [CACACA_site1203] | 8.52 ± 0.35
30 | ATATGTGTGTAGTGTTCAATTATATTGATGTGAAGG [TGCATGCA_negctrl_site462] | 8.76 ± 0.42
31 | GAACCGTGCAAATGTTGTACACTTTAAAAATATTCT [XGTACX_site4488] | 8.57 ± 0.23
32 | AAAACGAAAATTTGGAAACCAAAGGAAAAACATAAT [GTGCAC_negctrl_site709] | 8.99 ± 0.51
33 | TAGGAGCCTAGACACACACACAAAAAAAAAAAAAAA [CACACA_site6911] | 8.1 ± 0.54
34 | TACATATAGAAACACACACACATATATATATATATA [CACACA_site1300] | 10.1 ± 0.38
35 | AAAAAGGTTATTGGTACACACATATGTATATATATA [CACACA_site552] | 9.3 ± 0.057
36 | TATACATACTCACCCACACACAAAAAAAAAAAAAAA [CACACA_site862] | 8.56 ± 0.63
37 | TATTTAATGTGATACTTATATTATTTTATGATTAAA [GTGCAC_negctrl_site25] | 8.14 ± 0.42
38 | TATATAAGAATTTTTACACACATGAAAATGTAGATA [CACACA_site3735] | 8.26 ± 0.45

Row | Sequence | gcPBM binding intensity (ln)
39 | ATATTCAATTCATACACACACAATTTAAGAATGATA [CACACA_site3883] | 8.51 ± 0.56
40 | CATATAGATTTGTTCACACACACACTAAAAAAAAAA [CACACA_site7212] | 8.46 ± 0.47
41 | TTATTTTACTTTTATGCAACTAAAAATATTGCTATA [XGTACX_negctrl_site277] | 8.57 ± 0.33
42 | AATAAAATTTGCGATGCACACAGAATAGCTAATATG [CACACA_site8983] | 8.54 ± 0.45
43 | ACAAATGTGAGAAAGACACACATATAATAAAAAACA [CACACA_site1156] | 8.6 ± 0.48
44 | CACACGCACGAACACACACACACACGCACGCACATA [CACACA_site6305] | 8.76 ± 0.47
45 | TACAGACATACATACACACATACATACAGACATACA [CACACA_site1941] | 8.66 ± 0.26
46 | AAAAAAAAAATATTTGAACACACGAGGATATATAAA [CACACA_site139] | 8.73 ± 0.53
47 | TATATTTAATTATTTTGTACTCATATAAAGATGATG [XGTACX_site5488] | 8.52 ± 0.38
48 | TACATATTTACTATCACACACACGATATAAATAAAT [CACACA_site6701] | 8.56 ± 0.39
49 | ATACATATATAATTATGTACGTATATTTTATATAAC [XGTACX_site4292] | 8.47 ± 0.15
50 | ATGAATAAAAAAGGTGGTACATATATATATATATAT [XGTACX_site7893] | 10.1 ± 0.49
51 | TGTCTTGTAAATTATTGTACTATTTAAAGTATAAAA [XGTACX_site7863] | 8.26 ± 0.4
52 | AAAATAATATAAATAATATAAGTGAGCATATATATA [TGCATGCA_negctrl_site527] | 8.46 ± 0.13
53 | TGTAGTCTGGAGAAAAGTACATAGTATCTGGTAACA [XGTACX_site4940] | 8.68 ± 0.33
54 | TTTTAATTTTAAAAATGTACTTTTATTATTTTTAAT [XGTACX_site8300] | 8.26 ± 0.3
55 | AATCTAATATAATGCACACATAAAAAAAAATCAAAC [CACACA_site3633] | 8.87 ± 0.33
56 | AAATAGTTAAAAAGGCGTACACATAAATAAATAAAT [XGTACX_site2096] | 9.04 ± 0.29
57 | TATTATATGTAGTTGAGTACATATAAATACATATAT [XGTACX_site7933] | 8.43 ± 0.3

Reference: the supplement of paper PMC11417369
